This is one part of the list. Most values come without repeats; read them as rough.
How the values were obtained:
Assay in all cases: cell count relative to DMSO control; melanoma cells; higher = more viable cells
Details in all cases: library dose: low library concentration; 72 h
MZ2-MEL = test system: MZ2-MEL
MeWo = test system: MeWo
RPMI7951 = test system: RPMI7951
RVH-421 = test system: RVH-421
SkMel28 = test system: SkMel28
SkMel2 = test system: SkMel2
SkMel30 = test system: SkMel30
UACC62 = test system: UACC62
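Further: cell number obtained by counting DAPI-stained nuclei in high-throughput microscope images with image analysis software, screen run in 1,536-well plates.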

Structure (SMILES)	cell count (MZ2-MEL)	cell count (MeWo)	cell count (RPMI7951)	cell count (RVH-421)	cell count (SkMel28)	cell count (SkMel2)	cell count (SkMel30)	cell count (UACC62)
CC[C@]1(O)C[C@H]2CN(CCc3c([nH]c4ccccc34)[C@@](C(=O)OC)(c3cc4c(cc3OC)N(C=O)[C@H]3[C@@](O)(C(=O)OC)[C@H](OC(C)=O)[C@]5(CC)C=CCN6CC[C@]43[C@@H]65)C2)C1 [vincristine] + C[C@]1(c2nc3c(C(N)=O)cccc3[nH]2)CCCN1 [Veliparib] (first compound 0.0001 µM, partner dose 1.4 µM)	70.5%	54.2%	41.4%	74.5%	55.5%	72.1%	51.2%	48.2%
CC[C@]1(O)C[C@H]2CN(CCc3c([nH]c4ccccc34)[C@@](C(=O)OC)(c3cc4c(cc3OC)N(C=O)[C@H]3[C@@](O)(C(=O)OC)[C@H](OC(C)=O)[C@]5(CC)C=CCN6CC[C@]43[C@@H]65)C2)C1 [vincristine] + NC1(c2ccc(-c3nc4ccn5c(=O)[nH]nc5c4cc3-c3ccccc3)cc2)CCC1 [MK2206] (first compound 0.0001 µM, partner dose 0.4 µM)	102%	50.3%	53.9%	92.9%	48.4%	94.3%	52.4%	29.2%
Cc1cc(Nc2cc(N3CCN(C)CC3)nc(Sc3ccc(NC(=O)C4CC4)cc3)n2)n[nH]1 [Tozasertib] + COc1ccc(Cl)c(Nc2nc3ccccc3nc2NS(=O)(=O)c2cccc(NC(=O)C(C)(C)N)c2)c1 [XL147] (first compound 0.006 µM, partner dose 0.8 µM)	91.3%	84.6%	97.2%	84.7%	92%	97.6%	101%	90.5%

Reference: the supplement of paper PMC4604168 (melanoma cell lines)
